Measured values taken from PubChem BioAssay AID686979 (National Center for Advancing Translational Sciences (NCATS), 2013).
In all, about 420,000 compounds went through this assay and about 50,000 (12%) were called active. Not shown: some 26% with an inconclusive outcome. The call rests on the fitted dose curve; in most records, active means well fitted inhibition curve with a large enough effect; inconclusive means small, poorly fitted or top-dose-only effect; inactive means flat fitted curve, though single readings scatter. This is a selection; strong and weak results do not stand in their true shares. More than one record can exist for a structure, and the calls need not agree.

Experiment: qHTS for Inhibitors of human tyrosyl-DNA phosphodiesterase 1 (TDP1): qHTS in cells in presence of CPT; further: nearly all actives have a fitted effect of over 55% in size
Details: chicken DT40 Tdp1-/-;hTDP1 cells + 20 nM CPT, ATP luminescence, 48 h; series mostly up to 46.2 µM; activity change, negative = growth inhibition: at the top concentration
Summary of the method: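 Chicken DT40 Tdp1-/- cells stably complemented with human TDP1 were seeded at 400 cells/well in medium containing 20 nM camptothecin, exposed to pin-transferred compounds, and grown at 37 °C for at least 48 hr. Viability was read as ATP luminescence.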
On the % scale 0 is the no-effect control and ±100 the full control effect; potency means the concentration at half of the fitted maximal effect.

| SMILES | activity change, negative = growth inhibition | Potency |
| --- | --- | --- |
| COc1ccc(-c2cc(=O)c3c(O)cc(O[C@@H]4OC(COC5OC(C)C(O)C(O)[C@@H]5O)C(O)C(O)C4O)cc3o2)cc1 (some centres undefined) | inactive: 4.99% | – |
| COC(=O)c1ccc(CN2[C@H](C(=O)OC)C[C@@]3(O)[C@H](O)[C@H](O)[C@H](O)C[C@@H]23)cc1 | inactive: -14.2% | – |
| N#Cc1ccc(CN2CC3(CCN(C(=O)c4cc(C(F)(F)F)cc(C(F)(F)F)c4)CC3)C2)cc1 | – | active: 20.6 µM |
| COc1ccc(CNC(=O)CCCn2c(=O)c3cccn3c3cccnc32)cc1 | inactive: -27.3% | – |
| C[C@@H]1CN([C@H](C)CO)C(=O)CCCn2nncc2CO[C@H]1CN(C)S(=O)(=O)c1ccc2c(c1)OCCCO2 | inactive: -4.64% | – |
| COC(=O)C[C@H]1c2cc(C(F)(F)F)ccc2S(=O)(=O)N1Cc1ccc(OC)cc1 | inactive: -21.6% | – |
| COC(=O)C1=COC(OC2OC(CO)C(O)C(O)C2O)C2C1C=CC2(O)CO (centres undefined) | inactive: 3.93% | – |
| CCC(C)OC(=O)C1=C(C)OC23OC(N)=C(C#N)C12C(=O)c1ccccc13 (centres undefined) | inactive: -14.4% | – |
| CCOCCCNC(=O)C(=O)NCCCOCC | inactive: 37.7% | – |
| CCCCCC(O)c1cccc(OCc2ccc3ccccc3n2)c1 (centres undefined) | inactive: -10.5% [at 4.12 µM] | – |
| COc1ccc2[nH]c(-c3ccccc3)c(CCNC(C)=O)c2c1 | inactive: 0.879% | – |
| Cc1ccccc1CO/N=C/c1[nH]ncc1Br | inactive: 15.9% | – |
| COc1cc(NC(=O)Cn2c(C)cc3ccccc3c2=O)cc(OC)c1OC | inactive: -11.9% | – |
| NC(=O)OCC(COC(N)=O)c1ccccc1 | – | inactive |
| CCCCn1nc(NC(=O)c2cccs2)c2cc3ccccc3nc21 | – | active: 20.6 µM |
| COc1cc(NC(=O)c2nccn2C)cc(C(=O)Nc2cccc(C(F)(F)F)c2)c1 | inactive: -67.1% | – |
| Cc1ccccc1C(C)(O)c1cnc(C)n1Cc1ccccc1 (centres undefined) | – | active: 20.6 µM |
| CCOC(=O)C[C@H]1c2cc(F)ccc2S(=O)(=O)N1c1ccccc1 | inactive: 5.64% | – |
| O=c1[nH]c2cc(C(F)(F)F)ccc2n1-c1cc(C(F)(F)F)ccc1O | inactive: -24.6% | – |
| O=c1cc(-c2ccccc2)oc2cc(O)c(O)c(O)c12 | inactive: -107% | – |
| COc1cc2nc(N3CCN(C(=O)[C@@H]4CCCO4)CC3)nc(N)c2cc1OC | inactive: 10.6% | – |
| O=C(Cc1ccccc1)c1nnc(-c2ccccc2)o1 | inactive: 12.2% | – |
| CCCCc1cc(=O)oc2cc(OCC(=O)NCCN3CCOCC3)c(Cl)cc12 | – | active: 13 µM |
| O=c1cc(N2CCN(c3ccc(F)cc3)CC2)[nH]c(=O)n1-c1cccc(Br)c1 | – | active: 10.3 µM |
| COc1ccccc1CNC(=O)c1cnn(-c2ccc(F)cc2F)c1C1CCN(C(=O)OC(C)(C)C)CC1 | – | active: 16.4 µM |

| SMILES | activity change, negative = growth inhibition | Potency |
| --- | --- | --- |
| Cn1c(=O)cc(OCC(=O)N2CCN(c3ccccc3F)CC2)c2ccccc21 | inactive: -0.224% | – |
| CC(C)OC(=O)/C(=C/c1cccnc1)NC(=O)c1ccccc1 | inactive: 30.5% | – |
| CCC(C(=O)OCC(=O)Nc1cc(C)ccc1OC)c1ccccc1 (centres undefined) | inactive: 33.2% | – |
| COc1ccc(C)cc1NC(=O)c1noc2c1CSc1ccccc1-2 | inactive: 31.2% | – |
| CC(C)OC(=O)C(C)(C)Oc1ccc(C(=O)c2ccc(Cl)cc2)cc1 | – | inactive |
| NC(=O)CC[C@H](N)C(=O)O | inactive: -3.97% | – |
| O=C1c2ccccc2C(=O)C1c1ccc(Br)cc1 | – | inactive |
| CCOC(=O)[C@@H]1[C@H]2COc3ccc(Br)cc3[C@@H]2N2C(=O)N(c3ccccc3)C(=O)[C@]12C | inactive: -4.71% | – |
| COc1ccc(C2CC(=O)c3cc(-c4nc(-c5cccc([N+](=O)[O-])c5)cs4)c(=O)n(-c4ccccc4)c3C2)cc1 (centres undefined) | inactive: 15.8% | – |
| COc1cc(NC(=O)CC2C(=O)N(c3ccccc3)C(=O)N2Cc2ccc(F)cc2)cc(OC)c1 (centres undefined) | – | active: 13 µM |
| CCOC(=O)[C@H]1CCC[C@@H](NS(=O)(=O)c2ccc(NC(C)=O)cc2)C1 | inactive: -23.6% | – |
| COc1cc2c(cc1OC)C(c1cccc(Cl)c1)CC(=O)N2 (centres undefined) | inactive: 5.98% | – |
| CCOc1ccc(C2CC(=O)c3c([nH]c(C(=O)OCCOc4ccccc4)c3C)C2)cc1 (centres undefined) | – | active: 13 µM |
| O=C(O)CCN1C(=O)C2C3c4ccccc4C(c4ccccc43)[C@@H]2C1=O (some centres undefined) | inactive: -5.74% | – |
| CC(=O)OC[C@@]1(O)C[C@]23CCC4c5ccoc5CC[C@@]4(C)C2CCC1C3 (some centres undefined) | inactive: -0.194% | – |
| Cn1nccc1C(=O)N/N=C/c1c(O)ccc2ccccc12 | – | active: 4.61 µM |
| CCOC(=O)CCSc1n[nH]c(=S)s1 | inactive: 30.3% | – |
| CCOc1ccc(NC(=O)c2ccc3snnc3c2)cc1 | inactive: -29.8% | – |
| CCOc1ccc2nc(S(N)(=O)=O)sc2c1 | inactive: -4.04% | – |
| Cc1cc(C)nc(N/N=C/c2cn[nH]c2-c2ccccc2)n1 | inactive: 17.7% | – |
| O=C1OC(Cc2ccccn2)C(O)=C1C1=NCCCN1 (centres undefined) | inactive: 33.3% | – |
| CCOC(=O)C1=C(CN2CCN(c3ccc(Cl)cc3)CC2)NC(=O)NC1c1ccc(OC)cc1 (centres undefined) | – | active: 20.6 µM |
| NC(Cc1cc(I)c(Oc2ccc(O)c(I)c2)c(I)c1)C(=O)O (centres undefined) | inactive: 18.1% | – |
| Cc1c(C)n(Cc2ccccc2)c2ccc(C(=O)NCc3ccccc3F)cc12 | – | active: 18.4 µM |
